Data on 68 molecules can be found in paper PMC3199943, “Screening the MayBridge Rule of 3 Fragment Library for Compounds That Interact with the Trypanosoma brucei myo-Inositol-3-Phosphate Synthase and/or Show Trypanocidal Activity” (Molecular Biology International, 2011).

Structures are written as SMILES.

One test relates to cultured bloodstream T. brucei (strain 427).
Test: not given
To be noted: Supplementary Table 1; compound 0.5 mM; percentage of controls in the absence of compound; mean ± SD (n=3) or SE (n=2).
Take `COc1cc2c(cc1OC)C(C)=NCC2` [compound 664, 6,7‐dimethoxy‐1‐methyl‐3,4‐dihydroisoquinoline]: the “T. brucei Alamar Blue” value is on record as 48.8 ± 12 percentage of controls.

For `Cc1cc(CN)n(C)n1` [compound 73, (1,3‐dimethyl‐1H‐pyrazol‐5‐yl)methylamine], the “T. brucei Alamar Blue” value is 80 ± 15.5 percentage of controls.

On to `Cc1cc(N)ccc1C(C)C.Cl` [compound 497, 4‐isopropyl‐3‐methylaniline hydrochloride], for which the “T. brucei Alamar Blue” value is 30.1 ± 9 percentage of controls.

With `NCc1ccc2c(c1)OCCO2` [compound 306, 2,3‐dihydro‐1,4‐benzodioxin‐6‐ylmethylamine], the “T. brucei Alamar Blue” value is on record as 29.2 ± 8 percentage of controls.

Consider `OCc1cccc(Cn2ccnc2)c1` [compound 527, [3‐(1H‐imidazol‐1‐ylmethyl)phenyl]methanol], for which the “T. brucei Alamar Blue” value is 78.7 ± 10.9 percentage of controls.

Turning to `Cc1nc(-c2ccccc2)c(CO)s1` [compound 666, (2‐methyl‐4‐phenyl‐1,3‐thiazol‐5‐yl)methanol], the “T. brucei Alamar Blue” value is 85.9 ± 17.4 percentage of controls.

The test system is the same in a further test. As to the kind of experiment: microbe, parasite or virus in culture. To be noted: Trypanosoma brucei, read-out: T. brucei Alamar Blue. Background: Resazurin is reduced to fluorescent resorufin, in cell work by metabolically active cells.
As to `O=C(O)Cc1coc2ccccc12` [compound 410, benzo[b]furan‐3‐ylacetic acid], the viability at 500 µM was 55.1 ± 19.3%.

Take `Nc1ccccc1N1CCOCC1` [compound 436, 2‐morpholinoaniline]: the viability at 500 µM was found to be 83 ± 6.1%.

As to `O=C(O)c1cc2ccccc2[nH]1` [compound 275, 1H‐indole‐2‐carboxylic acid], the viability at 500 µM was found to be 83 ± 15.6%.

As to `COC(=O)c1ccc2ncccc2c1` [compound 515, methyl quinoline‐6‐carboxylate], the viability at 500 µM was 59.2 ± 1.4%.

Regarding `Cc1cccc(N)c1N` [compound 55, 3‐methylbenzene‐1,2‐diamine], the viability at 500 µM amounted to 30.7 ± 8.3%.

As for `Cc1cc(O)nc2ccccc12` [compound 258, 4‐methyl‐2‐quinolinol], the viability at 500 µM was 92.9 ± 6.8%.

In the case of `c1ccc2c(c1)CCO2` [compound 49, 2,3‐dihydrobenzo[b]furan], the viability at 500 µM turned out to be 104 ± 18.1%.

As to `COC(=O)c1cc2ccccc2cn1` [compound 514, methyl isoquinoline‐3‐carboxylate], the viability at 500 µM was determined as 56.8 ± 18.2%.

On to `N#CCc1nc2ccccc2s1` [compound 387, 2‐(1,3‐benzothiazol‐2‐yl)acetonitrile], for which the viability at 500 µM turned out to be 36 ± 8.3%.

As to `Oc1ccccc1N1CCOCC1` [compound 448, 2‐morpholinophenol], the viability at 500 µM worked out at 101 ± 18.8%.

On to `O=C(O)c1cccc(N2CCCCC2)c1` [compound 663, 3‐piperidinobenzoic acid], for which the viability at 500 µM was found to be 78.6 ± 22.6%.

Take `CC(C)(C)C(=O)Nc1ccncc1` [compound 439, 2,2‐dimethyl‐N‐(4‐pyridinyl)propanamide]: the viability at 500 µM came out at 61 ± 18.6%.

As for `O=C(O)c1ccc(-c2ccccn2)s1` [compound 661, 5‐(2‐pyridyl)thiophene‐2‐carboxylic acid], the viability at 500 µM amounted to 89.3 ± 17.6%.

Regarding `C1CNCCNC1` [compound 13, 1,4‐diazepane], the viability at 500 µM turned out to be 102 ± 15.4%.

Turning to `COC(=O)c1ccccc1F` [compound 220, methyl 2‐fluorobenzoate], the viability at 500 µM was 108 ± 10.5%.

Turning to `N#Cc1cccc(N2CCCC2)c1` [compound 362, 3‐pyrrolidin‐1‐ylbenzonitrile], the viability at 500 µM worked out at 88.1 ± 5.6%.

Consider `Cc1cc(O)cc(C)c1C#N` [compound 164, 4‐hydroxy‐2,6‐dimethylbenzonitrile], for which the viability at 500 µM was found to be 84.7 ± 2.4%.

For `OCc1ccc(-c2ccsc2)cc1` [compound 545, (4‐thien‐3‐ylphenyl)methanol], the viability at 500 µM stood at 60.7 ± 9.2%.

With `N#Cc1ccc(Oc2ccccn2)cc1` [compound 596, 4‐(pyridin‐2‐yloxy)benzonitrile], the viability at 500 µM was determined as 89.3 ± 9%.

Regarding `COC(=O)c1cccc(N)c1` [compound 194, methyl 3‐aminobenzoate], the viability at 500 µM was 89.8 ± 7%.

Regarding `Nc1nsc(-c2ccccc2)n1` [compound 424, 5‐phenyl‐1,2,4‐thiadiazol‐3‐amine], the viability at 500 µM stood at 107 ± 4.7%.

Turning to `CNCc1cccc(-c2ccncc2)c1` [compound 605, N‐methyl‐N‐(3‐pyridin‐4‐ylbenzyl)amine], the viability at 500 µM turned out to be 37.4 ± 13.7%.

For the molecule `Oc1ccc2c(c1)OCO2` [compound 124, 1,3-benzodioxol-5-ol], the viability at 500 µM was 28.2 ± 7.1%.

With `O=C(O)C1Cc2ccccc2N1` (centres unmarked) [compound 292, indoline-2-carboxylic acid], the viability at 500 µM was 32.9 ± 9.3%.

In the case of `NC(=S)CSc1ccccc1` [compound 472, 2‐(phenylthio)ethanethioamide], the viability at 500 µM was 43 ± 11%.

Consider `CC(C)(C)OC(=O)Nc1cccs1` [compound 620, tert-butyl N-(2-thienyl)carbamate], for which the viability at 500 µM was 40.1 ± 17.6%.

With `COc1ccc(Cl)cc1N` [compound 246, 5‐chloro‐2‐methoxyaniline], the viability at 500 µM came to 85.4 ± 17.2%.

For `Clc1ccc(Cl)s1` [compound 211, 2,5‐dichlorothiophene], the viability at 500 µM worked out at 102 ± 10.9%.

With `Cc1ccc[nH]c1=O` [compound 17, 3‐methyl‐1,2‐dihydropyridin‐2‐one], the viability at 500 µM stood at 93.6 ± 17.8%.

For the molecule `Nc1ccccc1-n1cccn1` [compound 260, 2‐(1H‐pyrazol‐1‐yl)aniline], the viability at 500 µM amounted to 80.8 ± 0.7%.

For `Nc1ccc(N2CCCCC2)cc1` [compound 413, 4‐piperidinoaniline], the viability at 500 µM worked out at 26 ± 4.8%.

Regarding `CCc1cccc(C(C)=O)c1` [compound 174, 1‐(3‐ethylphenyl)ethan‐1‐one], the viability at 500 µM was 107 ± 13.3%.

As for `CC(C)(C)c1ccc(N)cc1` [compound 178, 4‐(tert‐butyl)aniline], the viability at 500 µM came out at 101 ± 6%.

`CSc1ccc(Cl)cc1N` [compound 382, 5‐chloro‐2‐(methylthio)aniline]: the viability at 500 µM worked out at 105 ± 13.7%.

As to `CC1Cc2ccccc2C1=O` (centres unmarked) [compound 157, 2‐methylindan‐1‐one], the viability at 500 µM amounted to 109 ± 10.3%.

As to `Cc1cccc(C)c1C#N` [compound 94, 2,6‐dimethylbenzonitrile], the viability at 500 µM worked out at 86 ± 16.6%.

For the molecule `C#Cc1ccc(OC)cc1` [compound 96, 1‐eth‐1‐ynyl‐4‐methoxybenzene], the viability at 500 µM came out at 104 ± 18.1%.

On to `Cc1nc(CCN)cs1` [compound 141, 2‐(2‐methyl‐1,3‐thiazol‐4‐yl)ethylamine], for which the viability at 500 µM is 82.8 ± 0.9%.

Turning to `Cc1nc(-c2ccc(N)cc2)cs1` [compound 547, 4‐(2‐methyl‐1,3‐thiazol‐4‐yl)phenylamine], the viability at 500 µM is 47.6 ± 17.4%.

For the molecule `Cc1cccc(C(N)=O)c1C` [compound 176, 2,3‐dimethylbenzamide], the viability at 500 µM was found to be 107 ± 12.1%.

Turning to `Nc1ccc(CO)cn1` [compound 66, (6‐amino‐3‐pyridinyl)methanol], the viability at 500 µM amounted to 29.6 ± 6.1%.

On to `Cc1ccc2cc(C(=O)O)ccc2n1` [compound 510, 2‐methyl‐6‐quinolinecarboxylic acid], for which the viability at 500 µM came out at 91.2 ± 16.1%.

As to `Cc1cc(N)n(C)n1` [compound 26, 1,3‐dimethyl‐1H‐pyrazol‐5‐amine], the viability at 500 µM turned out to be 97.8 ± 4.7%.

`CC(=O)c1nccs1` [compound 79, 1‐(1,3‐thiazol‐2‐yl)ethan‐1‐one]: the viability at 500 µM was 114 ± 19.2%.

Turning to `CNCc1ccc(-c2ccccn2)cc1` [compound 607, N‐methyl‐N‐(4‐pyridin‐2‐ylbenzyl)amine], the viability at 500 µM was found to be 32.8 ± 7.4%.

`Cc1nn(C)c(C)c1N` [compound 72, 1,3,5‐trimethyl‐1H‐pyrazol‐4‐amine]: the viability at 500 µM was determined as 20.8 ± 6.2%.

Take `NC(=S)c1ccno1` [compound 86, isoxazole‐5‐carbothioamide]: the viability at 500 µM is 101 ± 3.2%.

Regarding `OCCc1coc2ccccc12` [compound 284, 2‐benzo[b]furan‐3‐ylethanol], the viability at 500 µM amounted to 68.3 ± 14.3%.

`OCc1csc(-c2ccccc2)n1` [compound 557, (2‐phenyl‐1,3‐thiazol‐4‐yl)methanol]: the viability at 500 µM is 64.1 ± 11.9%.

For `CC(C)(C)c1cccc(N)c1` [compound 179, 3‐(tert‐butyl)aniline], the viability at 500 µM worked out at 92.3 ± 14.3%.

For the molecule `Nc1cccc(-c2cncnc2)c1` [compound 353, 3‐pyrimidin‐5‐ylaniline], the viability at 500 µM amounted to 69.2 ± 4.2%.

On to `COC(=O)Cc1ccsc1` [compound 238, methyl 2‐(3‐thienyl)acetate], for which the viability at 500 µM turned out to be 103 ± 4%.

As to `Cn1nccc1N` [compound 7, 1‐methyl‐1H‐pyrazol‐5‐ylamine], the viability at 500 µM came to 96.4 ± 2.6%.

With `CCOC(=O)CCc1ccc(O)cc1` [compound 585, ethyl 3‐(4‐hydroxyphenyl)propanoate], the viability at 500 µM is 43.8 ± 15.9%.

As to `CC(=O)c1ccc(F)c(F)c1` [compound 234, 1‐(3,4‐difluorophenyl)ethan‐1‐one], the viability at 500 µM turned out to be 98.7 ± 6.5%.

In the case of `NCCOc1ccccc1` [compound 122, 2‐phenoxyethylamine], the viability at 500 µM is 64.6 ± 8.2%.

For the molecule `NC(=S)c1ccccc1` [compound 123, benzene‐1‐carbothioamide], the viability at 500 µM was determined as 107 ± 16.2%.

As for `NC(=O)c1ccccc1Cl` [compound 230, 2‐chlorobenzamide], the viability at 500 µM was determined as 96.7 ± 8.2%.

Take `Nc1ccccc1CN1CCOCC1` [compound 570, 2‐(morpholin‐4‐ylmethyl)aniline]: the viability at 500 µM amounted to 123 ± 10.8%.

The same test, now with this note: Trypanosoma brucei, read-out: T. brucei Alamar Blue (% survival).
For `Oc1ccc2c(c1)OCO2` [compound 124, 1,3-benzodioxol-5-ol], the viability at 500 µM came out at 28.2 ± 7.1%.

As to `O=C(O)C1Cc2ccccc2N1` (centres unmarked) [compound 292, indoline-2-carboxylic acid], the viability at 500 µM came out at 32.9 ± 9.3%.

Consider `CC(C)(C)OC(=O)Nc1cccs1` [compound 620, tert-butyl N-(2-thienyl)carbamate], for which the viability at 500 µM amounted to 40.1 ± 17.6%.

Still in this test, the particulars now being: Trypanosoma brucei, read-out: T. brucei Alamar Blue, Supplementary Table 1; compound 0.5 mM; percentage of controls in the absence of compound; mean ± SD (n=3) or SE (n=2).
Turning to `O=C(O)c1ccc2cc[nH]c2c1` [compound 271, 1H‐indole‐6‐carboxylic acid], the viability at 500 µM was 90.5 ± 2.4%.

As for `Cc1cc(N)no1` [compound 9, 5‐methylisoxazol‐3‐amine], the viability at 500 µM stood at 97 ± 14.3%.

Take `O=C(O)c1ccc(-c2cccnc2)cc1` [compound 612, 4‐pyrid‐3‐ylbenzoic acid]: the viability at 500 µM turned out to be 40.1 ± 12.4%.
